Measurements from PubChem BioAssay AID1745853 (National Center for Advancing Translational Sciences (NCATS), 2022).
Where “and” joins values, the source holds several entries; their conditions need not be identical. Identical values can stand only once. Some of the results follow. Shown are side measurements of this screen, not its main read-out; they come without a call.

What was measured:
Assay in all cases: Primary Screen for Target Class Profiling of Small Molecule Inhibitors of Methyltransferases
[1] = target: Guanidinoacetate N-methyltransferase (Homo sapiens) (UniProt Q14353); conditions: purified enzyme, MTase-Glo SAH luminescence; measured here: GAMT inhibition; at 40 µM; stronger effect = lower value
Procedure, shortened: (§1)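 Each enzyme was assayed with SAM and its substrate. SAH formation detected by MTase-Glo luminescence; single-point 40 uM screen[…].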

[2] = target: Nicotinamide N-methyltransferase (Homo sapiens) (UniProt P40261); conditions: purified enzyme, MTase-Glo SAH luminescence; measured here: NNMT inhibition; at 40 µM; stronger effect = lower value
Procedure, shortened: as §1

[3] = target: Phenylethanolamine N-methyltransferase (Homo sapiens) (UniProt P11086); conditions: purified enzyme, MTase-Glo SAH luminescence; measured here: PNMT inhibition; at 40 µM; stronger effect = lower value
Procedure, shortened: as §1

[4] = target: Glycine N-methyltransferase (Homo sapiens) (UniProt Q14749); conditions: purified enzyme, MTase-Glo SAH luminescence; measured here: GNMT inhibition; at 40 µM; stronger effect = lower value
Procedure, shortened: as §1

[5] = target: Histamine N-methyltransferase (Homo sapiens) (UniProt P50135); conditions: purified enzyme, MTase-Glo SAH luminescence; measured here: HNMT inhibition; at 40 µM; stronger effect = lower value
Procedure, shortened: as §1
On the % scale 0 is the no-effect control and ±100 the full control effect.

Structure (SMILES)	activity change, negative = inhibition [1]	activity change, negative = inhibition [2]	activity change, negative = inhibition [3]	activity change, negative = inhibition [4] [%]	activity change, negative = inhibition [5] [%]
Cc1cccc(N2C(=O)N(Cc3ccc(C(C)(C)C)cc3)c3ccccc3S2(=O)=O)c1	-35.4%	-37.5%	-5.22%		
CC(C)Cn1c(=O)c2ccc(C(=O)NC(C)C)cc2n2c(SCC(=O)NC3CCCC3)nnc12	-9.62%	-6.3%	-3.52%	-3.45	3.77
Cc1c(C(=O)Nc2ccc(N3C[C@@H](C)O[C@@H](C)C3)nc2)cccc1-c1ccc(OC(F)(F)F)cc1	0.116% and -7.9%	-11.8% and -26.2%	3.36% and -5.54%	7.21	8.57
COc1ccc(-c2ccc(C(=O)NCc3cccc(Cl)c3)cc2)nn1	-9.91%	-18.8%	-29.5%	-8.82	-7.23
COc1cc(C(C)=O)ccc1O[C@@H]1O[C@H](CO[C@@H]2O[C@@H](C)[C@H](O)[C@@H](O)[C@H]2O)[C@@H](O)[C@H](O)[C@H]1O	6.27%	-4.8%	3.94%	0	10.1
Cc1ccc(Sc2cncc3sc(C(N)=O)cc23)cc1	5.7%	-18.8%	3.02%	-6.23	10.6
CCNC(=O)Nc1ccc(-c2nc3c(c(N4CCOC[C@@H]4C)n2)CCN(c2ncccn2)C3)cc1	11%	-20.1%	-1.94%	-13.8	4.73
COc1ccc(-c2nnc(-c3ccc(Cl)c(S(=O)(=O)N4CCCCC4)c3)o2)cc1OC	0.414%	1.31%	0.827%	-0.663	0.951
COc1ccc2c(c1)c(NC(C)=O)c1n2CC(C)(C(=O)NC2CCCCCC2)N(C2CCCC2)C1=O (stereo not drawn)	0%	-1.08%	1.59%	5.03	8.49
CNC1=C(c2ccc(F)cc2)C(=O)N(Cc2ccccc2)C1	-7.74%	-12.7%	-6.24%	-6.18	-8.93
CCNC(=O)[C@@H]1C[C@H](NC(=O)CCc2ccccc2)CN1Cc1cnc[nH]1	-5.22%	1.79%	-1.55%	-1.67	0.434
CC[C@@]1(O)CCN(C(=O)c2cccc(CCC(C)(C)O)c2)C[C@H]1O	0.148%	-0.79%	-12.5%	1.64	1.76
CCn1ncnc1C(C)NC(=O)Cn1nc(-c2ccccc2)n(CC)c1=O (stereo not drawn)	-7.24%	-14.2%	-9.33%	-3.43	-0.218
CC(C)NNC(=O)c1ccncc1	8.15%	-7.66%	-4.39%	8.66	11.1
COc1ccc(C#Cc2ccc(C(=O)N3CCC[C@@H](CO)C3)cc2)cc1	-0.64%	-14.5%	-11%	-2.24	1.02
O=C(CCc1nnn2c1CN(C(=O)c1cccc3[nH]ccc13)CC2)N1CCCC1	-4.79%	-7.98%	-48.5%	-14.8	-1.7
COCCC(=O)N1CCCN(C(=O)C2CC2)c2ccccc21	-2.26%	-4.1%	0.565%	-6.81	-2.43
CC1(C(=O)NC2CCCCCC2)Cn2c(ccc2-c2ccccc2)C(=O)N1Cc1cccs1 (stereo not drawn)	1.32%	-9.61%	-1.87%	5.26	-1.5
CCOC(=O)c1cc2n(n1)CC(C)(C(=O)NCc1ccc(C)cc1)N(c1cc(Cl)ccc1C)C2=O (stereo not drawn)	1.59%	5.42%	7.72%	6.28	6.05

Structure (SMILES)	activity change, negative = inhibition [1]	activity change, negative = inhibition [2]	activity change, negative = inhibition [3]	activity change, negative = inhibition [4] [%]	activity change, negative = inhibition [5] [%]
O=C(CCc1nnc2n(Cc3ccc(F)cc3)c(=O)c3ccccc3n12)Nc1ccc(F)c(F)c1	3.54%	-19%	-1.4%	-1.48	6.17
Nc1nc(CCC(=O)N[C@@H]2COCC[C@H]2Oc2ccc(CO)cc2)cs1	0.905%	-4.83%	-2.48%	-2.56	3.42
CC1CCN(S(=O)(=O)c2ccc3c(ccn3CC(=O)NCC(C)c3ccccc3)c2)CC1 (stereo not drawn)	2.64%	-5.51%	-3.33%	-0.188	-5.46
Cc1ccc(C)c(NS(=O)(=O)c2ccc3[nH]c4c(c3c2)CCCC4)c1	0%	-11.3%	3.94%	3.84	4.94
O=C(NCCc1c[nH]c2ccc(Cl)cc12)c1cc2n(n1)CCCN(Cc1ccccc1)C2=O	0.647%	-7.16%	-0.767%	-12.1	-0.515
CC(C)CCO[C@H]1COCCN(C2CCN(C)CC2)C1	-6.42%	-16%	-6.88%	-6.47	-5.03
CN1C(=O)c2cc(C(=O)NCCN3CCCCC3)nn2CC1(C)C(=O)NCc1ccc(F)cc1 (stereo not drawn)	0.125%	7.19%	6.87%	7.64	-2.46
CC1OC(OCC2OC(OC3CCC4(C)C(CCC5(C)C4CC=C4C6CC(C)(C)CCC6(C(=O)OC6OC(CO)C(O)C(O)C6O)CCC45C)C3(C)CO)C(O)C(O)C2O)C(O)C(O)C1O (stereo not drawn)	5.45%	-6.58%	1.17%	3.27	11
O=C(O)c1cc(=O)c2ccccc2[nH]1	2.58%	-7.16%	0.83%	-8.24	-0.499
CC(C)(C)c1ccc(S(=O)(=O)N2CCC(n3c(=O)[nH]c4ccccc43)CC2)cc1	4.46%	-13.2%	-5.68%	-11	-5.55
CC(C)NC(=O)N1CCOc2ccc(CCC(=O)NCCc3cccnc3)cc2C1	2.7%	-5.36%	11.5%	-4.07	-1.49
CCCOC(=O)Cn1c(=O)oc2cc(S(=O)(=O)NCC(C)c3ccccc3)ccc21 (stereo not drawn)	0.425%	-2.66%	5.28%	3.28	9.83
COc1ccc(C(=O)N2CC[C@@](O)(C3CCOCC3)[C@H](C)C2)o1	3.53%	-2.11%	17.2%	-0.325	1.89
CO[C@@H]1[C@@H](O[C@H]2O[C@@H](C)[C@H](O[C@@H]3C[C@](C)(O)[C@H](O)[C@@H](C)O3)[C@@H](N(C)C)[C@@H]2O)[C@@H](CC=O)C[C@@H](C)[C@@H](O[C@H]2CC[C@H](N(C)C)[C@H](C)O2)/C=C/C=C/C[C@@H](C)OC(=O)C[C@H]1O	5.06%	-1.12%	-3.19%	0.75	-4.33
COc1ccc(CN2C(=O)c3cc4ccccc4n3CC2(C)C(=O)NCCCOC(C)C)c(OC)c1 (stereo not drawn)	1.2%	0.234%	-0.722%	1.24	3.47
COc1cccc(-c2cc(F)ccc2C2Cc3nc(N)nc(C)c3C(=O)N2)n1 (stereo not drawn)	-5.37%	-42.8%	-6.07%	-4.53	5.22
Cc1cc(C)c(NC(=O)N(Cc2ccc3c(c2)Cc2ccccc2-3)C2CCCCCC2)c(C)c1	-37.5%	-51.8%	-18.2%	3.46	2.36
CN(C)[C@@H]1CN(C(=O)CCc2ccccc2)CC[C@]1(O)c1ccccc1	-9.79%	-17.6%	-5.75%	-6.26	-4.88
